Measured values reported in the supplement of paper PMC3334620.
In all, about 33,000 sequences were measured (“E-score (-0.5 to 0.5)”: median about -0.013, highest 2% from about 0.3 on). The list shows a part of the results.

Biological target: T1, Msn1 (UniProt P22148)
T1 sequence: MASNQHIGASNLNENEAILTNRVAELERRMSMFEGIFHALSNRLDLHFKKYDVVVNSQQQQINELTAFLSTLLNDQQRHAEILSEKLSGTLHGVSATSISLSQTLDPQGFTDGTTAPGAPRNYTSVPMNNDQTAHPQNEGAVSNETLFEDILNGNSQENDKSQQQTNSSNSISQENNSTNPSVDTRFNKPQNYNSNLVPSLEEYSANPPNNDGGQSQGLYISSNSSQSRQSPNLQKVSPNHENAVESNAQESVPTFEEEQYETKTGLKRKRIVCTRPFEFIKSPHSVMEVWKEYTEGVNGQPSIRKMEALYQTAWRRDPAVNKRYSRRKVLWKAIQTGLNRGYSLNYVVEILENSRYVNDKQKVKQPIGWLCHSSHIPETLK
Test: PBM E-score (8-mer binding enrichment) (E-score (-0.5 to 0.5)); higher = stronger / more preferred TF binding; most listed sequences are background and not binding sites
Conditions: protein concentration: 200 nM; construct: GST-full length
In short: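 Bound GST-tagged yeast transcription factors, applied at about 100-200 nM to double-stranded universal all-10-mer Agilent arrays, were detected with fluorescent anti-GST. Scans were normalised with masliner. A modified Wilcoxon-Mann-Whitney statistic, the E-score, was assigned to each ungapped eight-base word pooled with its reverse complement by the Universal PBM Analysis Suite.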

Sequence	PBM E-score
ACCATTTG	0.114
AAGATTTC	0.0737
AGTAGCTG	-0.0836
AACTATAT	0.215
GAGGCGTA	-0.118
CGTGCTAG	-0.122
CGTGTCAA	-0.104
CAGTCCCG	-0.153
GCGATTAA	0.101
GTTACTCA	0.043
CTTGCGCA	0.0933
CGGGATGC	-0.168
CGTGATGC	-0.147
CCGACGGC	-0.0173
GCGCATTA	0.0379
AGATCTTA	0.0143
ATCAAGCG	0.0736
CATTTCGC	0.175
CTTTGCGC	-0.0143
AAAATGAA	-0.00087
CGACGGAC	0.229
CCATTGGA	-0.0624

Sequence	PBM E-score
GATGTGTA	-0.00302
ACATGCGT	0.0734
GTTTGAAA	0.0809
ACAATGTG	0.0288
GCCACATA	-0.00313
CGCTTACC	-0.0094
CACCACCA	-0.262
AAATGCGG	0.11
CCTTAACG	0.0499
AGAAATAC	-0.017
AGGATACG	-0.105
CTTTCTTC	-0.0175
CGATGTAG	0.202
AACAAATT	0.157
GGAACATA	0.124
CTAACGGA	0.137
AGCTAGCT	-0.0901
AGTATTTA	0.134
CTGAAACA	0.0997
ATGGTAGA	0.0607
AACACGGT	-0.00479
GAGGAGGC	-0.35

Sequence	PBM E-score
AGCTAGTA	0.0996
CTTCAAAC	-0.0434
GCGATGAA	0.138
CACGTGGC	-0.168
CCTGTTTA	-0.0126
CGAGTAAG	0.0979
GGACCACC	-0.165
GGCCCACA	-0.113
CTTAAACC	0.00747
GACAATCA	0.217
ATCCGTAC	0.1
ACATGCAA	0.0293
ACAAGTGG	0.152
CGATGAAC	-0.0621
AGGCGGTC	-0.0693
CCTCGCGA	-0.188
ACAGCAAT	0.138
GAGCAGCA	0.0385
CCGTTCCC	-0.165
ATACGATC	0.106
GATCTGCC	-0.0561
AAAGAATC	-0.0643

Sequence	PBM E-score
AAGGGGTG	-0.0822
ACTTCGAT	0.0414
CGCTACTC	0.0548
AGTGTAGC	-0.0951
GCCTGCAA	-0.0526
AGAGCTAG	-0.12
CTAGAGGA	0.00357
GTAGTCAC	-0.0991
GAAAAGTA	0.167
AATGTGCA	0.0661
GTAAATAC	-0.0147
AGTGAGCG	0.0187
AAGCAAGC	-0.012
GGAGTGCA	-0.159
TTGCGAAA	0.0731
AAGTTTCC	-0.0421
GAATGAGA	-0.132
AGCATGGG	-0.242
GGGACGTA	0.0883
AAAAGTGT	0.0256
GCTCCCCA	-0.338
CTTGGGCA	0.113

Sequence	PBM E-score
ATACGTAT	0.123
AACGATTA	-0.13
ATCGGCGA	-0.0922
ATAGATTC	-0.0916
ACCCTGCA	-0.0836
ATGGCACG	-0.29
CAACATGG	0.0147
CTGTAGCC	0.0564
GCTCACCA	-0.00029
TGTAGCAA	0.0325
GGGCAGGA	-0.097
AAGCTTCC	-0.0608
ATTATGTC	0.367
AATTACCA	0.0886
CTAACCTA	-0.0276
GAATCGAC	0.0159
GAGACTGA	-0.0203
GCCCATAA	-0.242
CGCTTACA	-0.0076
AGTACCGG	0.0467
AGAATACC	0.0521
